The RNAGym collection of RNA variant scans (doi:10.1101/gad.245936.114)
This sample is rich in variants without activity.

B1: tRNA (parent)
chain: CUCUCGGUAGCCAAGUUGGUUUAAGGCGCAAGACUUUAAUUUAUCACUACGAAAUCUUGAGAUCGGGCGUUCGACUCGCCCCCGGGAGAUUUUUUCCUCGAGCAA

Variants of: B1
Assay: nonsense suppression (GFP-seq) (ratio to wild type); higher = more function; SUP4oc tRNA, yeast GFP reporter sort-seq
Summary of the method: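 Yeast were grown in raffinose/galactose medium with 80 mg/L adenine, each strain bearing a genome-integrated ochre-suppressor tRNA variant from a ~3% random-mutation library, a galactose-driven GFP ochre reporter, and RFP. After sorting into GFP/RFP bins, every bin was sequenced on an Illumina platform at phred ≥30. The GFPSEQ value, a measure of nonsense suppression, is the weighted bin median GFP/RFP relative to the unmutated parent tRNA, using each variant's estimated cell share per bin as the weight. Only variants with ≥100 reads and ≥30 cells were included.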

Row | Variant | nonsense suppression
1 | A14C C64U | ≤ 0.026
2 | A13U A24U G67C G85C G88U | ≤ 0.026
3 | A13U C75A | 0.866
4 | A14G A24U G59A | ≤ 0.026
5 | A14C U57G | ≤ 0.026
6 | A14G U71A A87U | ≤ 0.026
7 | A14C C56G A87G | ≤ 0.026
8 | A14C A24G A30U G66A C77A G86U | ≤ 0.026
9 | A14C A24G G69C | ≤ 0.026
10 | A13U G15A | 0.046
11 | A13U G15C | ≤ 0.026
12 | A13G A31G C34A G73C | ≤ 0.026
13 | A14C A31G A74U C80G | ≤ 0.026
14 | A14G A33U | ≤ 0.026
15 | A14C C34G U76C | ≤ 0.026
16 | A13G G61U G67C C83G | ≤ 0.026
17 | A14G U57C U63A C81G | ≤ 0.026
18 | A14C G59A U70G | ≤ 0.026
19 | A14G U71G | ≤ 0.026
20 | A14G U71A | ≤ 0.026
21 | A14G G18A U70G A87U | ≤ 0.026
22 | A14C U16C U17G C34U U70A | ≤ 0.026
23 | A14G C64G A87G | ≤ 0.026
24 | A14G G19C C29A C56A G88C | ≤ 0.026

Row | Variant | nonsense suppression
25 | A13G G26U G61U G65C | ≤ 0.026
26 | A14C A62U | ≤ 0.026
27 | A14C U17G | ≤ 0.026
28 | A14G A24G | ≤ 0.026
29 | A14G A24C | ≤ 0.026
30 | A13U C27A C29A A60C | ≤ 0.026
31 | A13U U17G A33C | ≤ 0.026
32 | A14C U21A | ≤ 0.026
33 | A13C U76A | 0.282
34 | A13U U16C U63G | 0.18
35 | A14G G25C U76G C77U | ≤ 0.026
36 | A14C C29U C56U | ≤ 0.026
37 | A14C G19C A30U U70G C82A | ≤ 0.026
38 | A14C U57A G66U U70C | ≤ 0.026
39 | A13G G19A U58A U63G | ≤ 0.026
40 | A14C U20A C79G | ≤ 0.026
41 | A13G C64G | ≤ 0.026
42 | A13U G78A | 0.179
43 | A14C C79U | ≤ 0.026
44 | A14U A31G G84A | ≤ 0.026
45 | A13G A24G U57A | ≤ 0.026
46 | A13U U16C G67U G69A G78A | ≤ 0.026
47 | A13U G59C U63C C83G | ≤ 0.026
48 | A13U U16A | 0.837

Row | Variant | nonsense suppression
49 | A14C U16C | ≤ 0.026
50 | A14C U16A | ≤ 0.026
51 | A14C U16G | ≤ 0.026
52 | A14G U16G C64U | ≤ 0.026
53 | A14U A31U A87U | ≤ 0.026
54 | A13U U57A G65A | ≤ 0.026
55 | A14C C27G G28C G86U | ≤ 0.026
56 | A14G U20C G32U G61U | ≤ 0.026
57 | A13G U22A G65C G78A | ≤ 0.026
58 | A13U C29U C82A G86U | ≤ 0.026
59 | A13G A30G | 0.105
60 | A13G G25U G59C U70G G85C | ≤ 0.026
61 | A14U A30G A31G A33C U57G G65A G69U G85U G86A | ≤ 0.026
62 | A14U A33G | ≤ 0.026
63 | A13U G19U U21G A62C U63A | ≤ 0.026
64 | A14G U16C | ≤ 0.026
65 | A14G C27U C29U U70G | ≤ 0.026
66 | A13U A54U | 0.728
67 | A14G G28A G59U | ≤ 0.026
68 | A14G A62U G66C | ≤ 0.026
69 | A14G C56A C81G | ≤ 0.026
70 | A14C G59C G85A | ≤ 0.026
71 | A14G U16A U20A G59U U63G U70G | ≤ 0.026
72 | A13G G66U C72G | ≤ 0.026

Row | Variant | nonsense suppression
73 | A14G U55G | ≤ 0.026
74 | A13G G25C G61U U76C C81U | ≤ 0.026
75 | A14G U21G A89C | ≤ 0.026
76 | A13G U22A A87C | ≤ 0.026
77 | A14C G25C C29G G84U | ≤ 0.026
78 | A13U U70C G84C | ≤ 0.026
79 | A13G A87G G88A | ≤ 0.026
80 | A14G U16A C72G G88C | ≤ 0.026
81 | A14C G65A | ≤ 0.026
82 | A14C A33G U55G C79A | ≤ 0.026
83 | A13U C79A G84U | ≤ 0.026
84 | A13U A31G U71G | ≤ 0.026
85 | A13U A23G G61A | ≤ 0.026
86 | A13G U20A G26C U70A | ≤ 0.026
87 | A13G A24U G59C | ≤ 0.026
88 | A13G A24C U58A C68U C79G | ≤ 0.026
89 | A13U C83U | 0.157
90 | A14G U20A U35G U55G | ≤ 0.026
91 | A14C G15C C56U | ≤ 0.026
92 | A14U A31G C56A G69A | ≤ 0.026
93 | A14C G85U | ≤ 0.026
94 | A14C A54C | ≤ 0.026
95 | A14C G32C A54G A60C C64U | ≤ 0.026
96 | A14C A87C | ≤ 0.026

Row | Variant | nonsense suppression
97 | A14U A23U A60G G65C | ≤ 0.026
98 | A14G A87G | ≤ 0.026
99 | A14G A23C G88U | ≤ 0.026
100 | A13U A23U G26C G28C | ≤ 0.026
101 | A14G C79G | ≤ 0.026
102 | A14G C27U | ≤ 0.026
103 | A14G U76C | ≤ 0.026
104 | A13U C29G A30U C56A | ≤ 0.026
105 | A13G C34U U35G C81G | ≤ 0.026
106 | A14G G15U U57C | ≤ 0.026
107 | A13U G86A | 0.0315
108 | A13G U20A U55A G61C | ≤ 0.026
109 | A13U G19U | ≤ 0.026
110 | A13C U57A G66A | ≤ 0.026
111 | A13G U17G A62U | ≤ 0.026
112 | A14U A30G U55A | ≤ 0.026
113 | A14G A62G | ≤ 0.026
114 | A14G G66A | ≤ 0.026
115 | A14G C27A U35A | ≤ 0.026
116 | A14C G15A G66C | ≤ 0.026
117 | A14G C29G C83A | ≤ 0.026
118 | A14C G15C U16G U22G C83A | ≤ 0.026
119 | A13U C64G U70G | ≤ 0.026
120 | A13U G61A G67U | ≤ 0.026

Row | Variant | nonsense suppression
121 | A13U G67U | ≤ 0.026
122 | A14C C29A C56U | ≤ 0.026
123 | A13G A24G C27A A60G C81U | ≤ 0.026
124 | A13G C80A | ≤ 0.026
125 | A13U C56A | ≤ 0.026
126 | A14G U16G C77A | ≤ 0.026
127 | A14G A30G G88C | ≤ 0.026
128 | A13G C34U G65C | ≤ 0.026
129 | A14G A30G A31G G69A | ≤ 0.026
130 | A13U G18A G78A | ≤ 0.026
131 | A14U A31G U35G G61C | ≤ 0.026
132 | A14G A23C | ≤ 0.026
133 | A14G A23U | ≤ 0.026
134 | A14G G19C C56A | ≤ 0.026
135 | A13C U58C G73A C79U | ≤ 0.026
136 | A14G C83G G86A | ≤ 0.026
137 | A13C U57C G65A C75A G88C | ≤ 0.026
138 | A14G A33U C56G U76A | ≤ 0.026
139 | A14G C29A G65A | ≤ 0.026
140 | A13G C27U G69U C80G G84U | ≤ 0.026
141 | A13C U63C | 0.848
142 | A13C U63A | 1.17
143 | A13U C29A C82A | ≤ 0.026
144 | A13G G26U C77G | ≤ 0.026

Row | Variant | nonsense suppression
145 | A14C G67C C68U A87C | ≤ 0.026
146 | A14U A24C A31C | ≤ 0.026
147 | A13U G15U G65C | ≤ 0.026
148 | A13G G15C C27A C82A | ≤ 0.026
149 | A13G C56G U57C G67A | ≤ 0.026
150 | A13G G32C G69C C72U | ≤ 0.026
151 | A13U G25A G59C | ≤ 0.026
152 | A14G A62C C83G | ≤ 0.026
153 | A14C C27U C81G | ≤ 0.026
154 | A13U C64G | ≤ 0.026
155 | A14U A31C G67U | ≤ 0.026
156 | A13G G26U | ≤ 0.026
157 | A14G G32C U55C | ≤ 0.026
158 | A13G A31U A54U | ≤ 0.026
159 | A14G G67U | ≤ 0.026
160 | A13U G28U G73A | ≤ 0.026
161 | A14G A30U A54C G65A | ≤ 0.026
162 | A13U U22C G78A C83U G86U | ≤ 0.026
163 | A13U G15U U16A A60U G67U | ≤ 0.026
164 | A14C A60C A87C | ≤ 0.026
165 | A13C U57A | ≤ 0.026
166 | A13U A54C G66A A74C G86A | ≤ 0.026
167 | A13G U58A G59U | ≤ 0.026
